Laboratory results from PMC4336329 (PLoS ONE, 2015).
Among all 310,000 compounds or so, about 14,000 (4.5%) showed an effect of 50% or more. The effect is printed as a negative number. The list shows a part of the results.

Target: human ether-à-go-go-related gene (hERG) potassium channel (human, UniProt Q12809)
Test: primary screen, population patch clamp on CHO cells stably expressing hERG
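Also: peak tail current of the secondary pulse compared with the same well before compound.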

Sequence of human ether-à-go-go-related gene (hERG) potassium channel (Q12809 whole entry, looked up): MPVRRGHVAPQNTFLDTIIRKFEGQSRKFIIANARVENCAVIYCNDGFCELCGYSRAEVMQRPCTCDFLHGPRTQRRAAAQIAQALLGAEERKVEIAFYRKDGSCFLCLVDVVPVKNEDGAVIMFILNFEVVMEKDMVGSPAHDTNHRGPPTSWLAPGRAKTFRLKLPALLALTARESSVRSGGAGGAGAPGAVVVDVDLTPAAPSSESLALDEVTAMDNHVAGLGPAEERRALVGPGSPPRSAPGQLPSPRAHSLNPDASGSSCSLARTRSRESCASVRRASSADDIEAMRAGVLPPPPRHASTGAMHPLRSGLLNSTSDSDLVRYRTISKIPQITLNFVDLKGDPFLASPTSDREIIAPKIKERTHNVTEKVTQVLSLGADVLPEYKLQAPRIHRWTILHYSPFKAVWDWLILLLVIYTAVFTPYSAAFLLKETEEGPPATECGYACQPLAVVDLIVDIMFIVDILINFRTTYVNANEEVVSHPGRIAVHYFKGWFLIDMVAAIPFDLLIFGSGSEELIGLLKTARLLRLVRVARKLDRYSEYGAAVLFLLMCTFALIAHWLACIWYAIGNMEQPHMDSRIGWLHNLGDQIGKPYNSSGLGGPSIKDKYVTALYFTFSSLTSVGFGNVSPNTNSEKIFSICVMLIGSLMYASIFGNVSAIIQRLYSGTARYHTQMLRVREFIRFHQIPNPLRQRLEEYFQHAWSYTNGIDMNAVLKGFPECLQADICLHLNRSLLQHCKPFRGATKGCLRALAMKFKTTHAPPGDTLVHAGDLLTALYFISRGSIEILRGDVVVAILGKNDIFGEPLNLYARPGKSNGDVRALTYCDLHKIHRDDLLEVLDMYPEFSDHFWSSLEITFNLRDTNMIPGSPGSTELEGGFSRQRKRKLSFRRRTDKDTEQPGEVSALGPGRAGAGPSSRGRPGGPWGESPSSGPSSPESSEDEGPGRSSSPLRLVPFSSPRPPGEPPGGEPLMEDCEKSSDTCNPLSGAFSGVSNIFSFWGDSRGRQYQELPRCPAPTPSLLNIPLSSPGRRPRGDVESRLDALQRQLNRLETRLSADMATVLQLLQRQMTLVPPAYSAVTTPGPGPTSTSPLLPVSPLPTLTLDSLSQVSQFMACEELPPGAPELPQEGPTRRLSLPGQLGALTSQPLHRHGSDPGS

Structure (SMILES)	hERG current change (%, negative = inhibition) at 10uM
Nc1ccc(C(=O)NNC(=O)C2COc3ccccc3O2)cc1[N+](=O)[O-] (stereo not shown)	-43.1%
O=C1COc2ccc(C(=O)COC(=O)c3cc(S(=O)(=O)NCc4ccccc4)ccc3O)cc2N1	-4.76%
C=CCN1CC[C@]23c4c5ccc(O)c4O[C@H]2/C(=N/NC(=O)c2ccccc2)CC[C@@]3(O)[C@H]1C5	-69.1%
CC(C)=CC(=O)OCC(=O)Nc1ccc(Cl)cc1	-22.9%
Cc1ccc2ccccc2c1NC(=O)CNC1CCCCC1.[O-][Cl+3]([O-])([O-])O	0.514%
CCCn1c2c(c(O)c(C(=O)Nc3nccs3)c1=O)CCCC2	-3.1%
Cc1ccc2c(c1)N(CC(=O)N1CCCC1)C(=O)c1cccnc1O2	10.8%
COc1ccc([N+](=O)[O-])cc1NC(=O)c1cc(C)c(C)o1	7.62%
COc1ccc(CC(=O)N2CCN(c3ccccc3)CC2)cc1OC	18.4%
CC(C)c1c(O)nc(SCCN(C)C)[nH]c1=O.Cl	-1.68%
O=C(c1ccc(Cl)nc1)N1CCN(S(=O)(=O)c2ccccc2)CC1	-3.95%
CN(Cc1cccc(F)c1)C(=O)CN1CCN(S(=O)(=O)c2ccc3c(c2)OCCCO3)CC1	1.02%
Cn1c(=O)c2sc3c(c2n(CC(=O)Nc2ccccc2)c1=O)COC(C)(C)C3	16.9%
COc1ccc(-n2c(SCC(=O)N/N=C/c3ccccc3OCC(=O)O)nc3ccccc3c2=O)cc1	5.92%
CC1CCCN(CC(=O)Nc2cccc([N+](=O)[O-])c2)C1 (stereo not shown)	-16.7%
CN1CC(=O)N(CC(=O)NCc2ccc3c(c2)OCO3)C1=O	-5.9%
COc1cc(C(=O)NCC(=O)N/N=C\C(C)=C/c2ccccc2)cc(OC)c1OC	2.8%
CCOc1ccc(N(CC(=O)Nc2cccnc2)S(C)(=O)=O)cc1	-20.7%
Cc1sc2nc(N)sc2c1C	-1.94%
O=c1c2cc(N3CCOCC3)ccc2[nH]c(=S)n1CC1CCCO1 (stereo not shown)	-17.4%
COc1ccccc1CNC(=O)COC(=O)C1=COCCO1	8.86%
COC(=O)CCn1[nH]c(=O)c2ccccc2c1=O	7.71%

Structure (SMILES)	hERG current change (%, negative = inhibition) at 10uM
COc1ccc(C(=O)NC2CCCc3ccccc32)cc1 (stereo not shown)	-7.74%
Cc1ccccc1NC(=O)/C(C#N)=C\c1cn(CC(=O)O)c2ccccc12	15%
O=C(CN1CCC(Cc2ccccc2)CC1)NC(=O)NCc1ccccc1	2.56%
O=C(O)CCCCCN1C(=O)/C(=C\c2cn(-c3ccccc3)nc2-c2cccs2)SC1=S	9.26%
CCCOC(=O)c1cccc(NC(=O)C(C)(C)C)c1	1.43%
Cc1ccc(-n2c(Cl)c(Cl)[nH]c(=O)c2=O)cc1	-14.1%
CN1CCN(C(=O)N2c3ccccc3C=Cc3ccccc32)CC1	-5.03%
CCn1c(-c2ccccc2)c(C(=O)CCl)c2ccccc21	19.7%
CCN1CCN(CCCNC(=O)Cn2nc(C)n3nc(-c4ccccc4)cc3c2=O)CC1	-11.1%
C[C@@H](C(=O)NCc1ccccc1)[C@@H]1C[C@@]1(C)[C@@H](NC(=O)OCc1ccccc1)c1ccccc1	-23.7%
COc1ccc(NC(=O)c2cc3cc(OC)ccc3oc2=N)cc1	13.9%
CCCCNC(=O)COC(=O)c1ccc(F)cc1Cl	-10.8%
CCCOCc1ccc(O)c2ncccc12	0.502%
O=C(CSc1nnc2ccc(-c3ccccn3)nn12)Nc1ccc(F)cc1F	-18%
CCC(=O)N1CCc2cc(S(=O)(=O)CCC(=O)N3CCN(c4ccccc4F)CC3)ccc21	3.11%
COn1c(-c2ccccc2)nc2ncccc21	19.1%
Cc1onc(-c2c(F)cccc2Cl)c1C(=O)OCC(=O)NC(=O)NCC(C)C	24.2%
Cc1cccc(OCCNC(=O)c2cccc(Oc3ccc(C(F)(F)F)cc3[N+](=O)[O-])c2)c1	4.98%
CC(=O)Nc1ccc(C(=O)NNC(=O)c2cccc(C)c2)cc1	-1.91%
CC(=O)c1ccc(NC(=O)CSc2nnc(NC(=O)C3CC3)s2)cc1	-0.703%
O=C(Nc1ccc(N2CCOCC2)nc1)c1cccs1	3.15%
CSc1nsc(SC)c1C(=O)N1CCN(S(=O)(=O)c2ccc(C)cc2)C1C (stereo not shown)	-29.9%

Structure (SMILES)	hERG current change (%, negative = inhibition) at 10uM
CCOc1c(C)cc(-c2[nH+]cccc2O)cc1C.[Cl-]	-7.49%
Cc1ccc(NC(=O)Nn2cnnc2)cc1Cl	6.96%
O=C(CCSc1nc(-c2ccco2)cc(C(F)(F)F)n1)NCCc1ccccc1	1.92%
Cc1ccc(Cn2cc(-c3ccccc3)nn2)cc1	17.2%
OC(CN1CCN(C(c2ccccc2)c2ccccc2)CC1)c1ccc(Br)cc1 (stereo not shown)	-28.8%
Cc1cc(C(=O)NNC(=S)NC(=O)/C=C/c2ccccc2Cl)n[nH]1	-8.91%
Nn1c(Nc2ccccc2)nc2ccccc2c1=O	14.2%
CS(=O)(=O)N1CCN(c2ccccc2NC(=O)c2ccc3ccccc3c2)CC1	-8.76%
COCCn1c(C)cc(O)c(C(=O)Nc2cccc(Cl)c2)c1=O	19.6%
CCOC(=O)C1CCCN(C2CC(=O)N(c3ccc(N4C(=O)CC(N5CCCC(C(=O)OCC)C5)C4=O)cc3)C2=O)C1 (stereo not shown)	-4.62%
Cc1cc(NC(=O)c2sc(Nc3ccc(F)cc3)nc2N)no1	20%
Cn1c(SCC(=O)Nc2ccccc2-c2ccccc2)nnc1-c1ccco1	-46.1%
CSc1ccc(S(=O)(=O)N2CCC(C(=O)N3CCc4ccccc4C3)CC2)cc1	-20%
CC(NC(=O)c1ccc(Br)cc1)C(=O)NC1=NCCS1 (stereo not shown)	15.9%
COc1ccc(/C=C2\SC(=O)N(CCNC(=O)C3CC(=O)N(c4ccccc4)C3)C2=O)cc1 (stereo not shown)	-21.9%
Cl.O=C(COc1ccc(Cl)cc1)N(c1ccccc1Cl)C1CN2CCC1CC2 (stereo not shown)	-50.5%
CC(=O)Nc1ccc(-c2cc(N)n(-c3ccccc3)n2)cc1	20.2%
CCCCCC(=O)Nc1cc(S(=O)(=O)N2CCOCC2)ccc1N1CCCC1	-26.4%
O=S(=O)(Cc1cc(Oc2ccccc2)nc(-c2ccccc2)n1)c1ccccc1	9.77%
COc1ccccc1CNC(=O)COC(=O)c1cccc(S(=O)(=O)N2CCCC2)c1	31.6%
CCCCN(C)CCNC(=S)Nc1ccc2nc(N3CCN(CC)CC3)cc(C)c2c1	2.83%
O=C(CSc1nc2ccccc2n1S(=O)(=O)c1cccc([N+](=O)[O-])c1)NCc1cccs1	-0.33%

Structure (SMILES)	hERG current change (%, negative = inhibition) at 10uM
CCOC(=O)c1c(C)nc2c(C#N)cnn2c1C	-38.2%
CCn1nc(C)c(CN2CCc3c([nH]c4ccccc34)C2c2ccc(F)c(OC)c2)c1C (stereo not shown)	-48.2%
CN(C)C1=NC[C@H](Cc2ccccc2)N1CCc1cccc(F)c1	-64.1%
CNc1ccc(/C=C/C(=O)c2cccc3ccccc23)cc1[N+](=O)[O-]	3.93%
Cc1cc([N+](=O)[O-])ccc1NC(=O)CN1CCN(Cc2ccccc2)CC1	-73.9%
O=[N+]([O-])c1ccc(COc2cccnc2)cc1	-6.51%
Cc1nn(Cc2ccccc2)c(C)c1NC(=O)CCCn1nc([N+](=O)[O-])c(Cl)c1C	-43%
CCCCn1c(=O)[nH]c(=O)c2c1nc(-c1ccc(-c3ccc(F)cc3)o1)n2C	-55%
CCN(CC)S(=O)(=O)c1ccc(C2CNC(=O)C2)cc1 (stereo not shown)	-34.3%
COc1cc(C(=O)OCC(=O)NC2CCS(=O)(=O)C2)c([N+](=O)[O-])cc1OC (stereo not shown)	11.9%
Cc1noc2ncnc(N3CCN(c4cccc(Cl)c4)CC3)c12	-52%
Cc1ccc(NC(=O)c2cc3c(s2)CCCC3)cc1	-12.8%
Cc1ccc2oc(=O)n(CC(=O)OCCC(C)C)c2c1	6.37%
Cc1cc(OCC(=O)N(C(C)C)C(C)C)cc(C)c1Br	-6.19%
Cc1cccc(N2CCN(S(=O)(=O)c3cccc4nonc34)CC2C)c1 (stereo not shown)	31.3%
Cc1cccc(Oc2ccccc2N)c1	-5.81%
COc1cc(S(=O)(=O)NCc2ccncc2)c(OC)cc1Cl	6.57%
COc1cccc(NC(=O)CN(C)C(=O)c2cccnc2Nc2cccc(C(F)(F)F)c2)c1	4.87%
CN(C)C(/C=C/Nc1ccc(F)cc1)=C(C#N)C#N	-8.47%
CC(C)(C)C1CCc2onc(C(=O)Nc3cnn(Cc4ccc(F)cc4)c3)c2C1 (stereo not shown)	11.9%
COc1ccccc1-c1nc2ccccc2c(=O)n1NC(=O)c1cccs1	2%
CCCC(=O)N1CC(=O)Nc2ccc(Br)cc2C1c1ccc(F)cc1 (stereo not shown)	-21.5%
